Experimental data published in ChEMBL document CHEMBL1157539, “Thousands of chemical starting points for antimalarial lead identification” (Nature, 2010).
In all, about 13,000 compounds were measured (“IFI”: median about 4, highest 2% from about 17 on). The list shows a part of the results.

test: GSK_TCMDC: Inhibition Frequency Index (IFI). The number of non-kinase HTS assays where a compound showed > 50 % inhibition, expressed as a percentage of the number of such assays in which the compound was tested (-0 is zero); type: functional

Which IFI does the source give for CCc1cn2c3c(cc(C(=O)N[C@@H](Cc4ccccc4)[C@H](O)CN[C@@H](C)CC)cc13)N(C)S(=O)(=O)CC2 here?
Its IFI is 1.47%.

For CC1CN(c2ccnc3ccc(Sc4ccc(Oc5ccccc5)cc4)cc23)CC(C)N1 (centres undefined), which IFI is on record?
The IFI was 13.6%.

Which IFI does the source give for Cc1ccc(/C=C/C(=O)NCCCCCN2CCN(C(=O)Nc3ccc(Cl)c(C(F)(F)F)c3)CC2)cc1 here?
Its IFI is 6.86%.

Which IFI does the source give for CN1CCN(C(C(=O)NCc2cc(Cl)cc(Cl)c2)c2ccc(NC(=O)Nc3ccccc3)cc2)CC1 (centres undefined) here?
Its IFI is 5%.

With CC[C@H]1CN(Cc2cccc(O)c2)CC[C@H]1CCCc1ccnc2ccc(O)cc12 as the compound, how does the IFI read?
Its IFI is 8.45%.

Which IFI does the source give for Cc1nc(C)c(-c2cccc(Oc3ccc(Cl)cc3)c2)c(O)c1Br here?
Its IFI is 7.58%.

With COc1ccc(CN2CCN(CC(=O)Nc3cc(Cl)ccc3-n3cncn3)CC2)cc1F as the compound, how does the IFI read?
The IFI was 1.35%.

Which IFI does the source give for Oc1cccc(Nc2ccnc3cc(-c4cc5ccccc5o4)ccc23)c1 here?
Its IFI is 5.04%.

With Nc1nc(N)c2c(Sc3ccc(F)cc3)cccc2n1 as the compound, how does the IFI read?
The IFI was 2.96%.

For CCOC(=O)C(Oc1ccc2ccccc2c1)C(=O)OCC, which IFI is on record?
The IFI was 1.46%.

For COc1cc(NC(=O)/C=C/c2cc(F)cc(F)c2F)cc(OCCN2CCN(CCN3CCOCC3)CC2)c1, which IFI is on record?
The IFI was 1.46%.

For N#CC(c1ccc(Br)cc1)c1ccc2c(C(F)(F)F)cc(C(F)(F)F)nc2n1 (centres undefined), which IFI is on record?
Its IFI is 13.7%.

With Cc1ccc(Oc2c(-c3ccccc3CN3CCCC3CN(C)C)cnn(C)c2=O)cn1 (centres undefined) as the compound, how does the IFI read?
Its IFI is -0%.

For COc1ccc2nccc([C@@H](O)CN3CCC(NS(=O)(=O)c4cc(Br)c(Br)s4)CC3)c2c1, which IFI is on record?
Its IFI is 0%.

For CN(CCN1CCC(c2c[nH]c3ccccc23)CC1)c1ccc(-c2nc3cc(Cl)c(Cl)cc3[nH]2)cc1, which IFI is on record?
Its IFI is 5.71%.

For COc1ccccc1C1CCN(C2CCC(NC(=O)/C=C/c3cc(C(F)(F)F)cc(C(F)(F)F)c3)CC2)CC1 (centres undefined), which IFI is on record?
The IFI was 10%.

For O=C(c1ccc(Cl)cc1)C1CCCN(C2CCN(CCc3ccccc3)CC2)C1 (centres undefined), which IFI is on record?
The IFI was 8.11%.

With CS(=O)(=O)NCCCNCc1ccc(-c2cccc(-c3nc4cc(C(F)(F)F)ccc4[nH]3)c2)cc1 as the compound, how does the IFI read?
Its IFI is 2.97%.

Which IFI does the source give for c1ccc(COc2ccc(Nc3ncnc4ccc(-c5ccc(CN6CCSCC6)o5)cc34)cc2)cc1 here?
Its IFI is 2.26%.

With Cc1nc(N)nc(N)c1CCCOc1ccc(Br)cc1 as the compound, how does the IFI read?
The IFI was 1.42%.

With O=[N+]([O-])c1cccc(C(Nc2ccccn2)c2ccc3cccnc3c2O)c1 (centres undefined) as the compound, how does the IFI read?
Its IFI is 8.74%.

For Cc1cc(-c2cccc(CNC3CCN(C)CC3)c2)ccc1S(=O)(=O)NCCN1CCCC1, which IFI is on record?
Its IFI is 1.9%.

With COc1cc2c(cc1OC)CN(CCc1ccc(NC(=O)c3cc4cc(OC(F)(F)F)ccc4[nH]3)cc1)CC2 as the compound, how does the IFI read?
The IFI was 6.19%.

Which IFI does the source give for Cc1ccc(C(C)C)c(Oc2cnc(NC(CO)c3ccccc3)nc2N)c1 (centres undefined) here?
Its IFI is 3.51%.

With NC(=O)c1ccccc1OCC(=O)Nc1cccc(-c2cccc(-c3nc4ccccc4[nH]3)c2)c1 as the compound, how does the IFI read?
Its IFI is 8.55%.

Which IFI does the source give for CN1CCN(C(C(=O)NCc2cc(Cl)cc(Cl)c2)c2ccc(Nc3cccc(C(F)(F)F)c3)cc2)CC1 (centres undefined) here?
Its IFI is 12.9%.

Which IFI does the source give for COc1ccc(N2C(=O)c3c(c4ccccc4n3C)C2c2ccccc2O)cc1 (centres undefined) here?
Its IFI is 3.96%.

With N#Cc1ccc(-c2ccc(C(=O)NCCCCN3CCC(c4cn(CCCO)c5ccccc45)CC3)cc2)cc1 as the compound, how does the IFI read?
The IFI was 3.74%.

With Cc1ccc(Oc2ccc(CNc3nc(Nc4cccc(F)c4)nc(Nc4cccc(F)c4)n3)cc2)cc1 as the compound, how does the IFI read?
Its IFI is 0%.

For CN1CCN(CCCN(Cc2csc(-c3ccc(CNCc4ccccc4)cc3)n2)C(=O)Nc2ccc3ccccc3c2)CC1, which IFI is on record?
The IFI was 6.25%.

For CC(C)COc1ccc(Cl)cc1Cc1ccc(-c2nc3cc(CCN(C)C)ccc3[nH]2)o1, which IFI is on record?
Its IFI is 16%.

With Cc1cc2c(cc1Cl)N(C(=O)Nc1cc(F)cc(-c3cncnc3)c1)CC2 as the compound, how does the IFI read?
Its IFI is -0%.

Which IFI does the source give for CCc1cn2c3c(cc(C(=O)N[C@@H](Cc4cc(F)cc(F)c4)[C@H](O)CNC4CCOCC4)cc13)N(C)S(=O)(=O)CC2 here?
Its IFI is 1.46%.

For COc1ccc2nccc(NC(=O)CNCc3ccc(-c4ccccc4)cc3)c2c1, which IFI is on record?
The IFI was 6.11%.

For N#CCCN1CCN(Cc2cccc(-c3ccc(-c4nc5ccccc5[nH]4)cc3)c2)CC1, which IFI is on record?
Its IFI is 1.41%.

Which IFI does the source give for Cc1nnc2c(N(C(=O)NCCc3ccccc3)C(=O)NCCc3ccccc3)cc3cc(Cl)ccc3n12 here?
Its IFI is -0%.

With CNC(=O)/C=C/c1cc(NC(=O)Nc2cc(C)nc3c(F)cccc23)ccc1OC as the compound, how does the IFI read?
The IFI was 1.41%.

Which IFI does the source give for CCN1CCC(NCc2ccc(-c3ccc(Cl)s3)cc2)CC1 here?
Its IFI is 3.6%.

With Cc1nc(O)c2c(ccc3ccc(CN(C)c4ccc(C(=O)N[C@@H](CCC(=O)O)C(=O)O)cc4)cc32)n1 as the compound, how does the IFI read?
The IFI was -0%.

With Cc1ccc(Nc2nccc(Nc3ccc4c(C)n[nH]c4c3)n2)cc1F as the compound, how does the IFI read?
The IFI was 2.13%.

For Cc1cc(N[C@@H](Cc2ccccc2)C(=O)NCCOc2ccccc2)nc(NCc2ccccc2C)n1, which IFI is on record?
Its IFI is 9.76%.

With NC1=NC(c2ccccc2)(c2ccccc2)C(=O)N1CCOc1ccccc1 as the compound, how does the IFI read?
Its IFI is 5%.

Which IFI does the source give for Cc1cccc(Nc2c(-c3cc(Br)ccc3O)nc3ncccn23)c1 here?
The IFI was 8.7%.

For COc1ccc2nccc([C@@H](O)CN3CCC(NC(=O)/C=C/c4ccc5ccccc5n4)CC3)c2c1, which IFI is on record?
The IFI was 2.94%.

Which IFI does the source give for CCCC(C)NC(=O)C(N)Cc1cccc(I)c1 (centres undefined) here?
Its IFI is -0%.

For CN1CCN(c2ccc(Nc3c4ccccc4nc4ccccc34)cc2)CC1, which IFI is on record?
The IFI was 6.72%.

Which IFI does the source give for Nc1nc(N)c2c(n1)CCC(c1ccccc1)C2 (centres undefined) here?
The IFI was -0%.

With CCCCCCN1CCC(CNCc2cccc(Cl)c2)CC1 as the compound, how does the IFI read?
The IFI was 2.08%.

For COc1cc(N)c(Cl)cc1C(=O)NCC1CCN(c2nc(C)cc(C)n2)CC1, which IFI is on record?
Its IFI is 2.33%.

For Clc1cccc(Nc2ccc3c(N4CCCCC4)ncnc3n2)c1, which IFI is on record?
Its IFI is 8.33%.

For Cc1[nH]c(C)c(-c2ccc(Oc3ccc(Cl)cc3)cc2)c(=O)c1Cl, which IFI is on record?
The IFI was 0%.

For CCCCN(C)CC#Cc1ccc(-c2ccc3[nH]c(C)c(Br)c(=O)c3c2)cn1, which IFI is on record?
Its IFI is 0.92%.

For CC1CN(c2cnn(Cc3ccc(NC(=O)Nc4cccc(C(F)(F)F)c4)cc3)c(=O)c2Cl)CC(C)N1 (centres undefined), which IFI is on record?
The IFI was 0.69%.

With Cc1cc(N2C(N)=NC(N)=NC2(C)C)ccc1Cl as the compound, how does the IFI read?
The IFI was 0.75%.

Which IFI does the source give for O=C(NCc1cccc(F)c1)Nc1ccc(-c2cccc(-c3nc4ccccc4[nH]3)c2)cc1 here?
Its IFI is 5.05%.

Which IFI does the source give for O=C1CCCN1CCCNCc1cccc(-c2ccc(-c3nc4cc(C(F)(F)F)ccc4[nH]3)s2)c1 here?
Its IFI is 5.77%.

For Oc1ccc(CCNCCCCNCCc2ccc(Cl)cc2)cc1O, which IFI is on record?
The IFI was 6.12%.

Which IFI does the source give for O=S(=O)(Nc1cccc(CCN2CCC(N3CCCCC3)CC2)c1)c1cccc2ccccc12 here?
Its IFI is 8.06%.

For Cn1cncc1-c1ccc2ncnc(Nc3ccc4c(cnn4Cc4ccccc4)c3)c2c1, which IFI is on record?
Its IFI is 4.08%.
